Test results: PubChem BioAssay AID1347073 (National Center for Advancing Translational Sciences (NCATS), 2019)
Hit rate of the full screen: of about 45,000 compounds, about 200 (0.44%) were called active. About 7% were inconclusive and are not listed. The call rests on the fitted dose curve; in most records, active means well fitted activation curve with a large enough effect; inconclusive means small, poorly fitted or top-dose-only effect; inactive means no such curve, though single readings can be large or run the other way. Some of the results follow.

Test: qHTS of TDP-43 Inhibitors: NCGC Sytravon Library Screen; further: 0% is about no effect; nearly all actives have a fitted effect of over 55% in size
Conditions: yeast TDP-43 toxicity rescue, BacTiter-Glo growth, 24 h; series mostly up to 46.1 µM; growth rescue (activation): at the top concentration
In short: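 TDP-43-expressing yeast, pregrown in raffinose, seeded at OD600 0.02 in galactose medium with compound for 24 hr at 30 deg C. Growth read by BacTiter-Glo luminescence, so rescue of toxicity appears as activation.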

Row | Structure (SMILES) | growth rescue (activation)
1 | c1ccc(CCC2=NCCn3cccc32)cc1 | inactive: -24%
2 | CN(CC(=O)Nc1cccc(C(F)(F)F)c1)C1=NS(=O)(=O)c2ccccc21 | inactive: 24.6%
3 | CN(C)CCCn1c(SCC(=O)Nc2nc(-c3cccc(Br)c3)cs2)nc2ccccc2c1=O | inactive: 32.1%
4 | CCn1c(=O)c(C(=O)CN2CCN(S(=O)(=O)c3cc(C)ccc3C)CC2)c(N)n(Cc2ccccc2)c1=O | inactive: -2.07%
5 | N#Cc1c(-c2ccccc2)nc(SCC(=O)Nc2nnc(C(F)(F)F)s2)[nH]c1=O | inactive: -14.6%
6 | O=C(CNCc1ccc(F)cc1)Nc1ccc(C(=O)N2CCCCC2)cc1 | inactive: 7.74%
7 | CCN(CC)S(=O)(=O)c1ccc(C(=O)N(c2ccc(C)cc2)C2C=CS(=O)(=O)C2)cc1 (configuration not stated) | inactive: -2.73%
8 | N#Cc1ccc(COc2cccnc2[N+](=O)[O-])cc1 | inactive: 7.07%
9 | CCN1CCN(c2ccc(S(=O)(=O)N3CCOCC3)cc2NC(=O)c2cccc([N+](=O)[O-])c2)CC1 | inactive: 10.3%
10 | CC(C)=CC(=O)OCC(=O)Nc1cc([N+](=O)[O-])ccc1F | inactive: 12.3%
11 | COc1ccc2cc(S(=O)(=O)n3cnc(C)c3)ccc2c1 | inactive: 19.3%
12 | CC(=O)c1ccc(-c2cnc3c(NC=O)cc(-c4ccc(S(C)(=O)=O)cc4)cn23)cc1 | inactive: 0.985%
13 | O=S(=O)(Nc1cccc(Cl)c1)c1cccc(-n2cnnn2)c1 | inactive: 6.06%
14 | Cc1ccc(F)cc1-c1cc2nc(NCCCN(C)C)n(C)c(=O)c2s1 | inactive: 4.14%
15 | COc1ccc(C(=O)O)cc1S(=O)(=O)NCCN(C)C | inactive: 17.8%
16 | CC(C)(C)C(=O)Nc1nnc(SCC(=O)NC2CCCC2)s1 | inactive: 15.6%
17 | COc1ccc(CNC(=O)COC(=O)CC2CCCC2)cc1 | inactive: 19%
18 | Cc1cc(C(C)(C)C)n2nc(C)c(-c3ccccc3)c2n1 | inactive: -21%
19 | CSc1ccc(C2c3[nH]c4ccccc4c3CCN2C(=O)c2ccnn2C)cc1 (configuration not stated) | inactive: -3.47%
20 | O=C(COc1ccc(C(=O)O)cc1)Nc1cccc(C(F)(F)F)c1 | inactive: 0.864%
21 | Oc1c(N=NC(=S)Nc2ccccc2F)c2ccccc2n1Cc1ccc(Cl)cc1 | inactive: 21%
22 | CC(=O)NC(c1ccc(F)c(F)c1)c1nc(-c2ccc(F)c(Cl)c2)cs1 (configuration not stated) | inactive: 10.9%

Row | Structure (SMILES) | growth rescue (activation)
23 | COc1cc(NC2c3ncccc3C(=O)N2Cc2ccco2)cc(OC)c1OC (configuration not stated) | inactive: -9.55%
24 | COc1ccc(CC2(CO)CCN(Cc3cccn3-c3ccccn3)CC2)cc1 | inactive: -9.33%
25 | Cc1ccccc1NC(=O)NCCc1c[nH]c2ccccc12 | inactive: 3.85%
26 | CCN1CCN(c2c(/C=C3\SC(=S)N(Cc4ccco4)C3=O)c(C)c(C#N)c(=O)n2C)CC1 | inactive: 3.05%
27 | CC(=O)NC(c1cccc(F)c1)c1nc(-c2cccc(C(F)(F)F)c2)cs1 (configuration not stated) | inactive: 12.7%
28 | C/C(N)=C(/C#N)C(=O)CSc1nnc(Nc2cccc(C)c2)s1 | inactive: -8.5%
29 | COc1ccc(Cc2noc(CN3CCCN(C4Cc5ccccc5C4)CC3)n2)cc1OC | inactive: 1.83%
30 | COc1ccc(CC(=O)NNc2ncnc3c2cnn3C)cc1OC | inactive: 8.63%
31 | Cc1nc(SCC(=O)N2CCN(c3ccccc3)CC2)[nH]c(=O)c1C | inactive: -1.32%
32 | Clc1nc2ccccc2cc1/C=N/Nc1nc2ccccc2[nH]1 | inactive: 8.53%
33 | CC(=O)N(C)N1c2ccccc2CCc2ccccc21 | inactive: 9.22%
34 | CCc1oc(C(=O)OC)cc1CSC(=N)N | inactive: -6.79%
35 | Cc1ccc(NC(=O)CCn2c(=S)oc3ccccc32)cc1 | inactive: 9.97%
36 | CCOC(=O)/C=C1/SCC(=O)N1CC(=O)Nc1ccccc1OC(F)F | inactive: 6.43%
37 | Cc1nc(C)c(C(=O)N2CCCC(CCC(=O)NCc3ccc(F)c(F)c3)C2)s1 (configuration not stated) | inactive: 11.4%
38 | CSc1nnc2c(n1)OC1(Nc3ccccc3-2)C(=O)Nc2ccccc21 (configuration not stated) | inactive: -0.749%
39 | Cc1cccc(OCC(=O)NC(Cc2c[nH]c3ccccc23)C(=O)O)c1C (configuration not stated) | inactive: -1.6%
40 | CCC(=O)Nc1ccc(C(=O)NNC(=O)Cc2ccccc2)cc1 | inactive: -4.24%
41 | Cc1ccc(C)c(OCCC(=O)Nc2ccccc2C(=O)NC2CC2)c1 | inactive: 3.8%
42 | Cc1cc(NC(=O)COC(=O)c2c(C)noc2C)ccc1Br | inactive: 7.68%
43 | Cc1nc2sc3c(c2c(=O)n1NC(=O)CCl)CCCC3 | inactive: 2.06%
44 | Cc1nn2c(NCc3cccnc3)c3c(nc2c1-c1ccccc1)CCC3 | inactive: 9.14%

Row | Structure (SMILES) | growth rescue (activation)
45 | N#Cc1ccc(OCC(=O)NCCCn2ccnc2)cc1 | inactive: -7.6%
46 | CC(=O)c1sc(NC(=O)c2cccc3ccccc23)nc1C | inactive: 9.85%
47 | O=C1c2ccccc2C(=O)N1CCc1c[nH]c2ccccc12 | inactive: 4.92%
48 | CC1CN(C(=S)SCCN2C(=O)CCC2=O)CC(C)O1 (configuration not stated) | inactive: 2.53%
49 | O=C(COc1ccc(Cl)cc1)NC1CCSC1=O (configuration not stated) | inactive: 25.9%
50 | COc1ccc(/C=C/C(=O)NCCN=C2NS(=O)(=O)c3ccccc32)cc1 | inactive: -2.65%
51 | COCCN(C(=O)CN1CCN(S(=O)(=O)c2ccc(F)cc2)CC1)c1c(N)n(Cc2ccccc2)c(=O)[nH]c1=O | inactive: -0.874%
52 | CCC(C)C(=O)Nc1nnc(SCC(=O)NC2CCCCC2)s1 (configuration not stated) | inactive: -9.35%
53 | CC1Cn2c(nc(=O)c3c2NCN(CCc2ccccc2)C3)S1 (configuration not stated) | inactive: -0.423%
54 | CCOc1ccc(OCC(=O)Nc2cccc(S(=O)(=O)NC3=NCCC3)c2)cc1 | inactive: 2.41%
55 | COc1ccccc1/C=C/C(=O)OCC(=O)NC1CCCCCC1 | inactive: 14.2%
56 | CCOc1ccc(-c2nc(C#N)c(NCc3ccco3)o2)cc1 | inactive: -1.31%
57 | CCOc1ccc(S(=O)(=O)N2CCCC(C(=O)N3CCOCC3)C2)cc1Cl (configuration not stated) | inactive: 4.72%
58 | CCCOc1ccc(N/C=C/C(=O)c2ccc(OC)c(OC)c2)cc1 | inactive: 16.4%
59 | O=C1CC(c2ccccc2F)c2c(c3ccccc3[nH]c2=O)O1 (configuration not stated) | inactive: -13.1%
60 | CCOC(=O)CCNC(=O)N1CCCC(CNS(=O)(=O)c2cccs2)C1 (configuration not stated) | inactive: -12.8%
61 | Cc1cc[n+](-c2[nH]c(=O)sc2/C=N/NC(=O)c2ccccc2[O-])cc1C | inactive: 17.9%
62 | N#CCCN(C(=O)COc1ccc(Br)cc1F)c1ccc(F)cc1 | inactive: 14.5%
63 | O=C(N[C@H](Cc1cc(=O)[nH]c2ccccc12)C(=O)O)c1ccc(Cl)cc1 | inactive: -40.2%
64 | O=C(c1cc2cc(F)ccc2[nH]1)N1CCC(Cc2ccccc2)CC1 | inactive: 15.4%
65 | Cc1cc(C)c2nc(SCC(=O)NNC(=O)c3ccco3)c(C)cc2c1 | inactive: 9.65%
66 | O=C(C1=C(O)C(=O)N(Cc2ccco2)C1c1cccnc1)c1cc2ccccc2o1 (configuration not stated) | inactive: -26.4%

Row | Structure (SMILES) | growth rescue (activation)
67 | CCOC(=O)c1c(NC(=O)CN2C(=O)CN(C)C2=O)sc(C)c1C | inactive: -5.25%
68 | Cc1c(C(=O)NC(C)c2ccccn2)oc2c(Cl)cccc12 (configuration not stated) | inactive: 11.8%
69 | CC(=O)Nc1ccc(/C=N/OCC(=O)Nc2ccc(C)cc2)cc1 | inactive: -15.8%
70 | O=C(COC(=O)c1cccnc1Cl)Nc1ccc2c(c1)OCCO2 | inactive: 17.6%
71 | Cc1c(O)ccc2cc(S(=O)(=O)c3ccccc3)c(=O)oc12 | inactive: -25.9%
72 | COc1cc(C(=O)OCC(=O)N2CC(C)OC(C)C2)cc(OC)c1OC (configuration not stated) | inactive: -2.84%
73 | O=C(OCc1nc2scc(-c3ccccc3)c2c(=O)[nH]1)c1cccc([N+](=O)[O-])c1 | inactive: 25.4%
74 | Cc1cc[n+](CC(=O)Nc2nc3ccccc3s2)cc1 | inactive: 12.6%
75 | Cc1cc(NC(=O)Cn2nc(-c3cccs3)ccc2=O)cc(C)c1Br | inactive: -6.98%
76 | COc1ccc(CNC(=O)CN2C(=O)NC(C)(c3ccc(Cl)cc3)C2=O)cc1 (configuration not stated) | inactive: 1%
77 | CCOC(=O)C1(CC2CCCCO2)CCN(Cc2nccn2-c2ccc(OC)cc2)CC1 (configuration not stated) | inactive: -0.177%
78 | COc1cc(C(=O)COC(=O)c2ccco2)cc(OC)c1OC | inactive: -3.41%
79 | Cc1ccccc1C(=O)N(Cc1ccc(N(C)C)cc1)Cc1ccco1 | inactive: 13.5%
80 | NC(Cc1ccccc1)c1csc(NC(=O)Nc2ccccc2Oc2ccccc2)n1 (configuration not stated) | inactive: 14%
81 | Cc1cc(N2C(=O)C=CC2=O)c([N+](=O)[O-])cc1C | inactive: -96.6%
82 | CCOc1ccccc1N(C(=O)c1ccco1)C(C(=O)NC1CCCC1)c1cccnc1 (configuration not stated) | inactive: 3.7%
83 | CCNC(=O)C1(C)CCCN1C(=O)c1ccc(N(C)C)cc1 (configuration not stated) | inactive: -6.32%
84 | Cc1ccc(NNC2CC(=O)N(c3cccc(Cl)c3)C2=O)cc1 (configuration not stated) | inactive: 25%
85 | COCC(=O)Oc1c(S(=O)(=O)c2ccccc2)c(C)nn1C(C)(C)C | inactive: -16.1%
86 | CCC12CN3CC(CC)(CN(C1)C31C(=O)N(C)c3ccc(C)cc31)C2=O (configuration not stated) | inactive: -3.48%
87 | Cc1cccc(/C(N)=N/OC(=O)COc2ccc(Cl)c(C)c2)c1 | inactive: 13.5%
88 | CC1CC2c3cccc(C(=O)O)c3C(=O)N2c2ccc(Cl)cc21 (configuration not stated) | inactive: 13.6%

Row | Structure (SMILES) | growth rescue (activation)
89 | Cc1cc(C)c2nc(-c3ccccn3)cc(C(=O)Nc3ccc(S(=O)(=O)Nc4onc(C)c4C)cc3)c2c1 | inactive: 6.99%
90 | CC(C)=CC(=O)OCC(=O)Nc1ccc(F)cc1Cl | inactive: -2.86%
91 | CCOC(=O)Nc1ccc(C)cc1NC(=O)OCC | inactive: 23.7%
92 | Clc1ccc(NCc2nnc3n2CCCCC3)cc1 | inactive: 19.6%
93 | Cc1cccc(NC(=S)N(c2ccccc2)C(C)C)c1C | inactive: 14.5%
94 | CC(C)(C)Cc1nnc(NC(=O)Cc2ccc([N+](=O)[O-])cc2)s1 | inactive: 5.22%
95 | C/C(=N\NC(N)=O)c1ccc(-n2ccnc2)cc1 | inactive: -6.59%
96 | COc1ccccc1-n1c(CNC(=O)c2cccc([N+](=O)[O-])c2C)n[nH]c1=S | inactive: 5.23%
97 | COc1cccc2cc(C(=O)NCc3ccc(C)cc3)c(=O)oc12 | inactive: 0.24%
98 | COc1ccc(-n2c(SC3CCOC3=O)nc3ccccc3c2=O)cc1Cl (configuration not stated) | inactive: 19.6%
99 | O=C(c1ccccc1)N(NC(=O)C(O)(c1ccccc1)c1ccccc1)c1cccc(F)c1 | inactive: 24.4%
100 | Nc1ccc(N2CCCCC2)c(Cl)c1 | inactive: 7.02%
101 | CC(C)Cn1c(N2CCN(CC(=O)Nc3ccc(Cl)cc3)CC2)nc2ccccc21 | inactive: 9.69%
102 | Cc1ccc2c(c1)N(CC(=O)N1CCCCC1)C(=O)CO2 | inactive: 6.7%
103 | Cc1ccc(C(=O)N(Cc2sccc2C)C2CCS(=O)(=O)C2)cc1 (configuration not stated) | inactive: 12.2%
104 | COc1cc(CN2CCC(C(=O)NC(c3ccc(F)cc3)c3ccc4ccccc4n3)CC2)cc(OC)c1 (configuration not stated) | inactive: 6.76%
105 | COc1ccc(OC)c(NC(=O)C2(C)CCN2C(=O)C2(c3ccc(Cl)cc3)CCC2)c1 (configuration not stated) | inactive: 24.9%
106 | COc1cc(/C=C/C(=O)OCC(=O)NCCCc2ccccc2)cc(OC)c1OC | inactive: 28.4%
107 | CC1CCc2sc(C(=O)N/N=C/C3CCCCC3)cc2C1 (configuration not stated) | inactive: 13.2%
